# Source: PubChem BioAssay AID485364 (National Center for Advancing Translational Sciences (NCATS), 2010)
# The whole screen tested about 360,000 compounds, of which about 11,000 (3.1%) were called active. Inconclusive means that the source gave no clear call. Such entries were picked first, then a sample of the others. Calls come from the whole dose curve; as a rule, active = well fitted inhibition curve with a large enough effect; inconclusive = small, poorly fitted or top-dose-only effect; inactive = no such curve, though single readings can be large or run the other way. Potencies of inconclusive entries are left out as doubtful fits.
# Target: Schistosoma mansoni thioredoxin glutathione reductase (TGR) (UniProt Q962Y6)
# Assay: qHTS Assay for the Inhibitors of Schistosoma Mansoni Peroxiredoxins; note: nearly all actives have a fitted effect of over 60% in size
# Conditions: purified TGR, DTNB reduction, TNB absorbance 405 nm; series mostly up to 114 µM
# Procedure, shortened: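 TGR 20 nM + NADPH 100 uM (dispensed conc.), cpd preinc 15 min RT; start with NADPH (500 uM addition) then DTNB (15 mM addition). Kinetic TNB absorbance, 405 nm filter. Four-parameter Hill fit across titration.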
# Potency is the fitted concentration of half-maximal effect; tags give direction and shape of the fitted curve.
row,SMILES,Potency
1,Cc1ccc2nc(NC(=O)c3ccc4c(c3)OCO4)sc2c1,inactive
2,O=C(O)C1C(c2ccccc2)C(C(=O)Oc2ccc(O)cc2)C1c1ccccc1 (centres undefined),"inconclusive [inhibitor, full curve, poor fit]"
3,c1ccc(N2CCN(c3nc4cc5c(cc4s3)OCCO5)CC2)cc1,inactive
4,CC1CN(c2oc(-c3ccco3)nc2S(=O)(=O)c2ccccc2)CC(C)O1 (centres undefined),"inconclusive [inhibitor, partial curve]"
5,CCOc1ccccc1/C=C/C(=O)NCC(=O)N1CCC(N(C)C2CCCCC2C)CC1 (centres undefined),active: 6.31 µM
6,Cc1ccc(OCC(=O)c2cc(C)n(C)c2C)c([N+](=O)[O-])n1,"inconclusive [inhibitor, partial curve]"
7,CCCCNC(=S)Nc1cccc(S(=O)(=O)NC2=NCCC2)c1,active: 39.8 µM
8,COc1ccc(C(=O)n2nnc3ccccc32)cc1Br,"inconclusive [inhibitor, full curve]"
9,O=C(O)CCCC(=O)Nc1ccc2c(c1)oc1ccccc12,inactive
10,CCN(CC(=O)Nc1cccc(C(C)=O)c1)S(=O)(=O)c1ccccc1,"inconclusive [inhibitor, partial curve]"
11,CCN1C(=O)[C@H]2[C@@H](c3ccc(-c4ccccc4)cc3)N[C@@](CC(C)C)(C(=O)OC)[C@H]2C1=O,"inconclusive [inhibitor, partial curve]"
12,Cn1c2c(c(=O)n(C)c1=O)C1c3ccccc3OCC1C(C)(C)O2 (centres undefined),"inconclusive [inhibitor, partial curve]"
13,O=C(CCS(=O)(=O)c1cc(Br)cc2c1N(C(=O)C1CC1)CC2)NCc1ccco1,"inconclusive [inhibitor, partial curve]"
14,O=[N+]([O-])c1ccc(Sc2ccccc2Cl)nc1,"inconclusive [inhibitor, partial curve]"
15,O=C(CCN1CCC(c2ccccc2)C1)c1ccccc1 (centres undefined),inactive
16,Oc1ccc(N2CCN(c3nc(-c4cccs4)nc4ccccc34)CC2)cc1,"inconclusive [inhibitor, partial curve]"
17,Cc1ccc(NC(=O)CSc2nnc(-c3cnccn3)n2Cc2ccco2)cc1,active: 44.7 µM
18,COc1cccc(C(c2c(O)nc(SC)n(C)c2=O)c2c(O)nc(SC)n(C)c2=O)c1,active: 7.08 µM
19,CC1(C)C2(C#N)C(N)=NC3(OCCO3)C12C#N (centres undefined),"inconclusive [inhibitor, single point]"
20,CCCCCCCCCCCCN1C/C(=C\C(=O)OCC)c2cc(C(F)(F)F)ccc2S1(=O)=O,"inconclusive [inhibitor, partial curve]"
21,Cc1ccc(-c2nc3ncccn3c2Nc2ccc3c(c2)OCO3)o1,"inconclusive [inhibitor, partial curve, poor fit]"
22,S=C(Nc1cccc(Cl)c1Cl)NC1CCN(Cc2ccccc2)CC1,"inconclusive [inhibitor, partial curve, poor fit]"

row,SMILES,Potency
1,COc1ccc(OC)c(NC(=O)C2C(C(=O)O)C3(Cl)C(Cl)=C(Cl)C2(Cl)C3(Cl)Cl)c1 (centres undefined),"inconclusive [inhibitor, partial curve]"
2,COc1ccccc1NC(=O)C1=C(C)Nc2nc(-c3ccco3)nn2C1c1ccccc1F (centres undefined),"inconclusive [inhibitor, partial curve]"
3,Cc1cc(C=O)c(C)n1-c1cc(C(F)(F)F)ccc1N1CCOCC1,active: 50.1 µM
4,COc1ccc(CCn2c(N)c(C(=O)NCc3ccco3)c3nc4ccccc4nc32)cc1OC,active: 15.8 µM
5,O=C(C1=C[C@@H](C2CC2)C[C@@H](OCCCCO)O1)N1CCOCC1,active: 56.2 µM
6,O=C(c1ccc(COc2ccc(F)cc2)o1)n1cc(Br)cn1,"inconclusive [inhibitor, partial curve]"
7,Cc1ccc(NC(=O)CSc2nc(-c3ccco3)nc3cc(=O)[nH]n23)cc1,"inconclusive [inhibitor, partial curve]"
8,COc1cc2cc(CCCOC(=O)c3ccc(F)cc3)oc(=O)c2cc1OC,"inconclusive [inhibitor, single point]"
9,C/C(=N\OCC(=O)N/N=C/c1ccc(C)cc1O)c1cccs1,inactive
10,Cc1ccccc1C(=O)N1c2ncnn2C2(CCCCC2)[C@@H]2CCCC[C@@H]21,inactive
11,CCOC(=O)C1(Cc2ccc(O)cc2)NC(c2ccco2)C2C(=O)N(c3ccccc3F)C(=O)C21 (centres undefined),"inconclusive [inhibitor, partial curve]"
12,COc1ccc(-n2ccnc2SCC(=O)NCc2ccco2)c(OC)c1,"inconclusive [inhibitor, partial curve]"
13,COC(=O)c1ccc(Cn2c(SCc3ccc(F)cc3)nc3ccncc32)cc1,inactive
14,COc1cc(CN2CCN(C(C)C)C(CCO)C2)ccc1OCc1ccccc1 (centres undefined),inactive
15,COc1cccc(N2CCN(C3CC(=O)N(c4ccc(Cl)c(Cl)c4)C3=O)CC2)c1 (centres undefined),"inconclusive [inhibitor, single point]"
16,Cc1cc(=O)[nH]c(SCC(=O)c2ccc(O)c(O)c2)n1,active: 17.8 µM
17,Cc1c(C)n(O)c2ccc3nonc3c12,"inconclusive [inhibitor, full curve, poor fit]"
18,Cc1ccc(C(=O)C2=C(O)C(=O)N(c3ncccn3)C2c2ccc(Cl)cc2)o1 (centres undefined),"inconclusive [inhibitor, partial curve]"
19,Cc1ccc(-c2ccc(CCC(=O)O)n2CC2CCCO2)cc1 (centres undefined),"inconclusive [inhibitor, partial curve]"
20,CC(C)C(=O)Nc1cccc(NC(=S)NC(=O)c2cccs2)c1,"inconclusive [inhibitor, full curve, poor fit]"
21,O=C(Nc1ccc(Cl)c(Cl)c1)Nc1ccc([N+](=O)[O-])cn1,inactive
22,Cc1ccc(CC(=O)NCC(c2ccco2)N(C)C)cc1C (centres undefined),"inconclusive [inhibitor, partial curve]"
